Three compounds from PubChem BioAssay (NCI) can be followed below.

Each structure is given as a SMILES string.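 Five compound concentrations were applied to cells in 96-well plates for 48 hours; endpoints were derived by simple linear interpolation of the resulting dose-response curve. Here, GI50 denotes the concentration required for 50% inhibition of growth. TGI denotes the concentration required for complete inhibition of growth.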

This assay relates to NCI-H322M lung. Nature of the assay: DTP human tumour cell line panel, 48 h.
Regarding `CC(=O)Nc1ccc(-c2cn(-c3cccc(C(=O)Nc4ccc(Cl)c(C(F)(F)F)c4)c3)nn2)cn1`, the GI50 (as a rule, the concentration at which growth is held to half of that of the control) was 1.77 µM and the TGI – broadly, the concentration at which net growth stops – is 4.32 µM.

Consider `Cc1ccc(C(=O)C[n+]2cccc3c4ccccc4ccc32)cc1`, for which the GI50 was 18 µM and the TGI came out at 66 µM.

`COc1cc(C2CC(c3ccc(Cl)cc3)=Nc3c(N)nc(N)nc3N2)ccc1Oc1nc(Nc2ccc(F)cc2)nc(N(C)C)n1` (stereo unspecified): the GI50 was more than 100 µM and the TGI was more than 100 µM.
